# In PubChem BioAssay (NCATS):
# Several values for one entry are separate records, joined by “and”; a condition that tells them apart may be missing. Equal values may be shown once. This list was built around the results that the source calls inconclusive (neither active nor inactive); the mix of calls is not that of the screen. For some assays here: Where the call is inconclusive, the potency comes from a doubtful curve fit. Activity calls are given as the source filed them. The call rests on the fitted dose curve; in most records, active means well fitted curve in the direction sought with a large enough effect; inconclusive means small, poorly fitted or top-dose-only effect, or another doubt; inactive means no such curve, though single readings can be large; an effect the other way counts as inactive or inconclusive.
# Assays:
# [1] = qHTS of pediatric cancer cell lines to identify multiple opportunities for drug repurposing: Primary screen for RD cells (AID 1347104); further: nearly all actives have a fitted effect of over 55% in size; further: potency means the concentration at half of the fitted maximal effect
# In short: (§1)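 Quantitative HTS format: each compound titrated (MIPE 11 points from 0.78 nM, NPC 8 points from 0.59 nM) onto cells plated 5 hours earlier. After 48 h at 37 degrees C, CellTiter-Glo luminescence was recorded.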
# [2] = qHTS of pediatric cancer cell lines to identify multiple opportunities for drug repurposing: Primary screen for MG 63 (6-TG R) cells (AID 1347105); settings: MG 63 (6-TG R) viability, CellTiter-Glo, 48 h; series mostly up to 46 µM; further: nearly all actives have a fitted effect of over 50% in size; further: potency means the concentration at half of the fitted maximal effect
# In short: as §1
# [3] = qHTS of pediatric cancer cell lines to identify multiple opportunities for drug repurposing: Primary screen for Rh41 cells (AID 1347108); further: potency means the concentration at half of the fitted maximal effect; nearly all actives have a fitted effect of over 70% in size
# In short: as §1
# [4] = qHTS of pediatric cancer cell lines to identify multiple opportunities for drug repurposing: Primary screen for OHS-50 cells (AID 1347103); further: potency means the concentration at half of the fitted maximal effect; nearly all actives have a fitted effect of over 40% in size
# In short: (§2)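 Cells (500-1,000/well) rested 5 h, then received compounds for 48 h; metabolically active cells were measured by CellTiter-Glo luminescence. Final concentrations spanned up to 46 µM (MIPE, 11-point) or 0.59 nM-46 µM (NPC, 8-point) in primary screens, 11-point in follow-ups.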
# [5] = qHTS of pediatric cancer cell lines to identify multiple opportunities for drug repurposing: Primary screen for control Hh wild type fibroblast cells (AID 1347106); further: nearly all actives have a fitted effect of over 55% in size; further: potency means the concentration at half of the fitted maximal effect
# In short: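 Cells (500-1,000/well) in growth media were settled 5 h at 37 degrees C, then given compounds for 48 h. Viability was read as CellTiter-Glo luminescence. Primary runs used MIPE at 11 points (0.78 nM-46 µM) and NPC at 8 points (0.59 nM-46 µM); follow-ups used 11 points.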
# [6] = qHTS of pediatric cancer cell lines to identify multiple opportunities for drug repurposing: Primary screen for Rh30 cells (AID 1347107); further: nearly all actives have a fitted effect of over 75% in size; further: potency means the concentration at half of the fitted maximal effect
# In short: as §2
# [7] = qHTS of pediatric cancer cell lines to identify multiple opportunities for drug repurposing: Confirmatory screen for SK-N-MC cells (AID 1347111);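 further: cells exposed to compound for 48 h before the readout; nearly all actives have a fitted effect of over 70% in size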
# In short: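 Seed 500-1,000 cells/well; rest 5 h at 37 degrees C. Pin-transfer compounds, 11-point titration. Incubate 48 h. Add CellTiter-Glo, 15 min RT, read luminescence.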
# Tags describe the fitted curve by direction and shape.
structure (smiles),measurement,setting,value
NC(=O)c1cn(Cc2c(F)cccc2F)nn1,Potency,[1],inactive
COC(=O)Nc1nc2ccc(Sc3ccccc3)cc2[nH]1,Potency,[1],"inconclusive: 1.33 µM [cytotoxic, full curve] and inconclusive: 1.32 µM [cytotoxic, full curve]"
same,Potency,[2],active: 668 nM and active: 1.18 µM
same,Potency,[3],"inconclusive: 1.5 µM [cytotoxic, full curve] and inconclusive: 1.87 µM [cytotoxic, full curve]"
O=C1Cc2cc(CCN3CCN(c4nsc5ccccc45)CC3)c(Cl)cc2N1,Potency,[4],"inconclusive: 24.6 µM [cytotoxic, partial curve] and inconclusive: 21.7 µM [cytotoxic, partial curve]"
same,Potency,[3],"inconclusive: 20.9 µM [cytotoxic, partial curve]"
CNCc1ccc(-c2[nH]c3cc(F)cc4c3c2CCNC4=O)cc1,Potency,[1],"inconclusive: 33.2 µM [cytotoxic, single point]"
CCCCCCCCCCCC(=O)[O][Sn]([CH2]CCC)([CH2]CCC)[O]C(=O)CCCCCCCCCCC,Potency,[2],inactive
O=c1oc2cc(O)ccc2s1,Potency,[2],inactive
COc1cccc2c1C(=O)c1c(O)c3c(c(O)c1C2=O)C[C@@](O)(C(=O)CO)C[C@@H]3O[C@H]1C[C@H](N)[C@H](O[C@@H]2CCCCO2)[C@H](C)O1,Potency,[1],active: 8.41 µM
same,Potency,[5],"inconclusive: 18.8 µM [cytotoxic, single point]"
same,Potency,[6],"inconclusive: 4.22 µM [cytotoxic, partial curve]"
same,Potency,[3],active: 8.41 µM
CCOc1cc(NC(C)=O)ccc1C(=O)OC,Potency,[2],inactive
CNC(=O)c1c(I)c(NC(=O)CCCCC(=O)Nc2c(I)c(C(=O)O)c(I)c(C(=O)NC)c2I)c(I)c(C(=O)O)c1I,Potency,[2],inactive
CCc1nn(CCCN2CCN(c3cccc(Cl)c3)CC2)c(=O)n1CCOc1ccccc1,Potency,[1],inactive
same,Potency,[3],"inconclusive: 15 µM [cytotoxic, single point]"
NCCO,Potency,[1],inactive
same,Potency,[6],inactive
C[C@H]1C[C@H]2[C@@H]3CCC4=CC(=O)C=C[C@]4(C)[C@@]3(Cl)[C@@H](O)C[C@]2(C)[C@@]1(O)C(=O)CO,Potency,[1],inactive
same,Potency,[7],inactive
NC(CO)C(=O)NNCc1ccc(O)c(O)c1O (configuration not stated),Potency,[1],"inconclusive: 33.5 µM [cytotoxic, single point] and inconclusive: 29.6 µM [cytotoxic, single point]"
same,Potency,[5],inactive
Nc1ccc(O)c(C(=O)O)c1,Potency,[2],inactive
N=c1ccn2c(n1)O[C@H]1[C@@H](O)[C@@H](CO)O[C@H]12,Potency,[1],"inconclusive: 16.6 µM [cytotoxic, partial curve]"
same,Potency,[6],"inconclusive: 18.7 µM [cytotoxic, partial curve]"
same,Potency,[3],"inconclusive: 18.7 µM [cytotoxic, partial curve]"
C[C@](N)(Cc1ccc(O)c(O)c1)C(=O)O,Potency,[1],"inconclusive: 14.8 µM [cytotoxic, partial curve, poor fit]"
same,Potency,[6],"inconclusive: 11.8 µM [cytotoxic, partial curve, poor fit]"
same,Potency,[3],"inconclusive: 23.5 µM [cytotoxic, partial curve, poor fit]"
COC(=O)C1=C(C)NC(C)=C(C(=O)OCCN2CCN(C(c3ccccc3)c3ccccc3)CC2)C1c1cccc([N+](=O)[O-])c1 (configuration not stated),Potency,[1],"inconclusive: 23.7 µM [cytotoxic, single point]"
same,Potency,[3],"inconclusive: 18.8 µM [cytotoxic, single point]"
